Data as given in PubChem BioAssay AID2675 (National Center for Advancing Translational Sciences (NCATS), 2010).
Screen size: about 280,000 compounds; about 100 (0.036%) were called active. The inconclusive results got no clear call from the source; some entries with a clear call stand among them for comparison. The call rests on the fitted dose curve; in most records, active means well fitted inhibition curve with a large enough effect in the signal ratio, with a control signal flat (not every such curve was filed as active); inconclusive means small, poorly fitted or top-dose-only effect, or effect the other way, or a change in a side signal; inactive means no such curve, though single readings can be large or run the other way; the % refers to the signal ratio. Potencies of inconclusive entries are doubtful fits and often do not repeat. “Side channel” marks fits to a control or component signal instead of the main read-out.

The molecules below were run against Muscleblind-like protein 1 (Homo sapiens) (UniProt Q9NR56) (assay: qHTS Assay for Inhibitors of MBNL1-poly(CUG) RNA binding). Conditions: TR-FRET MBNL1-His/biotin-(CUG)12 binding, 665/545 ratio; series mostly up to 57.5 µM.
In short: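 Inhibition of protein-RNA binding appears as loss of TR-FRET between terbium anti-His antibody on MBNL1-His and streptavidin-XL665 on biotin-(CUG)12. Activity is normalized to buffer-only and uninhibited-complex controls.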
Potency means the concentration at half of the fitted maximal effect; tags describe the fitted curve by direction and shape or compound fluorescence and quenching.

Chain of UniProt Q9NR56 (Q9NR56 whole entry, looked up): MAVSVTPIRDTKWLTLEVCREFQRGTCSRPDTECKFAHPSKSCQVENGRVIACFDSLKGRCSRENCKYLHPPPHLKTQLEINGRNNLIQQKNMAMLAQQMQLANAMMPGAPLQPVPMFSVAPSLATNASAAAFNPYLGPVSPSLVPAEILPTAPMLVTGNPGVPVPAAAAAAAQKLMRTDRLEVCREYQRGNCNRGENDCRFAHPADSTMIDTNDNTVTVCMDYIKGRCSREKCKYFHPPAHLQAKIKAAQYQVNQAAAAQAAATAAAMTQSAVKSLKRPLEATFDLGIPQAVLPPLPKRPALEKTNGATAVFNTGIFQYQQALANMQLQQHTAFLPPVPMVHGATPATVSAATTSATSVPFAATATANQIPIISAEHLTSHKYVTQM

**Q.** How did the Potency turn out when `COc1cc(C(=O)Nc2ccc(S(=O)(=O)N3CCOCC3)cc2)c([N+](=O)[O-])cc1OC` was run?
**A.** inconclusive: 14.1 µM [quencher, side channel, partial curve]

**Q.** Which Potency does the source give for `Oc1ccc(/C=N/Nc2cc(N3CCCC3)nc(N3CCCC3)n2)cc1` here?
**A.** inactive

**Q.** How did the Potency turn out when `COCCNC(=O)COC(=O)C1=Cc2ccccc2OC1` was run?
**A.** inconclusive: 22.4 µM [quencher, side channel, partial curve]

**Q.** `O=C(c1ccc(S(=O)(=O)Cc2ccccc2Cl)c([N+](=O)[O-])c1)N1CCN(c2ccccn2)CC1` was tested. Which Potency did it give?
**A.** inconclusive: 44.7 µM [quencher, side channel, partial curve, poor fit]

**Q.** For `O=C(CNC(=O)c1ccco1)N/N=C/c1c[nH]c2ccccc12`, which Potency is on record?
**A.** inactive

**Q.** `FC(F)(F)c1cc(CCN2C(=S)NC[C@@H]2CC2CCCCC2)cc(C(F)(F)F)c1` was tested. Which Potency did it give?
**A.** inactive

**Q.** With `S=C1NCCc2ccccc2C1c1ccccc1` (configuration not stated) as the molecule, how does the Potency read?
**A.** inconclusive: 20 µM [quencher, side channel, single point]

**Q.** For `CC1CCCN(C(=O)c2ccc([N+](=O)[O-])o2)C1` (configuration not stated), which Potency is on record?
**A.** inconclusive: 3.98 µM [quencher, side channel, full curve]

**Q.** For `CC(C)(CNc1ccc(C(F)(F)F)cc1[N+](=O)[O-])N1CCOCC1`, which Potency is on record?
**A.** inconclusive: 25.1 µM [quencher, side channel, partial curve]

**Q.** How did the Potency turn out when `CCCOc1ccc(CCC(=O)O)cc1` was run?
**A.** inconclusive: 79.4 µM [inhibitor, single point]

**Q.** For `COCC(C)NC(=O)CSc1nnc(-c2cccc(S(=O)(=O)N3CCCCC3)c2)o1` (configuration not stated), which Potency is on record?
**A.** inactive

**Q.** `COc1ccc(-c2c[n+](CC(=O)OC3CC(C)CCC3C(C)C)c3n2CCC3)cc1` (configuration not stated) was tested. Which Potency did it give?
**A.** inactive

**Q.** For `O=S(=O)(Nc1cc(Sc2cccc3cccnc23)c(O)c2ccccc12)c1ccccc1`, which Potency is on record?
**A.** inconclusive: 2.82 µM [quencher, side channel, full curve, poor fit]

**Q.** For `N#Cc1c(N)n(CCCN2CCOCC2)c2nc3ccccc3nc12`, which Potency is on record?
**A.** inconclusive: 14.1 µM [quencher, side channel, partial curve]

**Q.** Which Potency does the source give for `Cc1nn(-c2ccccc2)c(C)c1/C=N/NC(=O)CSc1nnc(SCc2ccccc2Cl)s1` here?
**A.** inconclusive: 100 µM [inhibitor, single point]

**Q.** With `O=C(N/N=C/c1cccnc1)c1cc2ccccc2cc1O` as the molecule, how does the Potency read?
**A.** inconclusive: 25.1 µM [quencher, side channel, partial curve]

**Q.** Which Potency does the source give for `CN(C)S(=O)(=O)c1cc(NC(=O)c2ccc(-n3ccnc3)c([N+](=O)[O-])c2)ccc1Cl` here?
**A.** inconclusive: 10 µM [quencher, side channel, partial curve]

**Q.** For `O=S(=O)(NCCCc1ccccc1)c1cccc2nsnc12`, which Potency is on record?
**A.** inconclusive: 17.8 µM [quencher, side channel, partial curve]

**Q.** How did the Potency turn out when `CN(C)/C=C/C(=O)c1ccc2noc(-c3ccccc3)c2c1` was run?
**A.** inconclusive: 31.6 µM [quencher, side channel, single point]

**Q.** For `COc1ccc(C(=O)Nc2ccc(S(=O)(=O)Nc3nccc(C)n3)cc2)cc1[N+](=O)[O-]`, which Potency is on record?
**A.** inconclusive: 35.5 µM [quencher, side channel, partial curve, poor fit]

**Q.** For `NC(=O)c1cc2cc([N+](=O)[O-])ccc2oc1=O`, which Potency is on record?
**A.** inconclusive: 3.16 µM [quencher, side channel, full curve]

**Q.** Which Potency does the source give for `Cc1ccc(C(=O)N/N=C/c2ccc(S(=O)(=O)O)o2)c(Cl)c1` here?
**A.** inconclusive: 20 µM [quencher, side channel, partial curve]

**Q.** `CCC(C)c1ccc(OCCn2cc(/C=N/NC(=O)CSc3nnc(C)s3)c3ccccc32)cc1` (configuration not stated) was tested. Which Potency did it give?
**A.** inactive

**Q.** Which Potency does the source give for `COc1ccc(OC)c(C2NC(=O)c3sc(=S)n(-c4ccccc4)c3N2)c1` (configuration not stated) here?
**A.** inconclusive: 14.1 µM [quencher, side channel, partial curve]

**Q.** How did the Potency turn out when `CCc1ccccc1NC(=S)NC1CC2CCC(C1)N2Cc1ccc(F)cc1` (configuration not stated) was run?
**A.** inactive

**Q.** How did the Potency turn out when `COc1ccc(-n2nc([N+](=O)[O-])c(=NCCc3ccc(Cl)cc3)n2O)cc1` was run?
**A.** inconclusive: 8.91 µM [quencher, side channel, partial curve]

**Q.** For `CN(C)c1nc(C=C(C#N)C#N)c(Cl)n1-c1ccc(F)cc1`, which Potency is on record?
**A.** inactive

**Q.** `CCN1CCOC(CC(=O)Nc2cccc([N+](=O)[O-])c2)C1=O` (configuration not stated) was tested. Which Potency did it give?
**A.** inconclusive: 14.1 µM [quencher, side channel, partial curve]

**Q.** For `COc1ccc(/C=C(\C#N)c2nc3ccccc3[nH]2)cc1O`, which Potency is on record?
**A.** inconclusive: 5.01 µM [quencher, side channel, full curve, poor fit]

**Q.** With `Cn1nnc(NC(=O)c2ccc([N+](=O)[O-])cc2Cl)n1` as the molecule, how does the Potency read?
**A.** inconclusive: 12.6 µM [quencher, side channel, partial curve]

**Q.** For `COC(=O)CC(=O)CSc1nc2c(cc1C#N)CCC2`, which Potency is on record?
**A.** inconclusive: 28.2 µM [quencher, side channel, single point]

**Q.** With `CCn1c(=S)sc2c(=O)n(CC(=O)NCCCc3ccccc3)c(C)nc21` as the molecule, how does the Potency read?
**A.** inconclusive: 0.631 µM [fluorescent, side channel, single point]

**Q.** Which Potency does the source give for `CC(c1ccccc1)N1C(=O)c2ccc(C(=O)NCc3cccnc3)cc2C1=O` (configuration not stated) here?
**A.** inconclusive: 14.1 µM [quencher, partial curve, poor fit]

**Q.** With `Cn1cc(C(=O)N/N=C/c2c(O)ccc3ccccc23)ccc1=O` as the molecule, how does the Potency read?
**A.** inactive

**Q.** For `CC(=O)Nc1ccc(NC(=O)c2ccccc2Sc2ccc([N+](=O)[O-])cc2Cl)cc1`, which Potency is on record?
**A.** inconclusive: 28.2 µM [quencher, side channel, single point]

**Q.** `Cc1cc(N/N=C/c2ccccc2O)c2ccccc2n1` was tested. Which Potency did it give?
**A.** inconclusive: 15.8 µM [quencher, side channel, partial curve]

**Q.** Which Potency does the source give for `O=C(Nc1ccc(-c2ccc3nncn3n2)cc1)c1ccc(Br)o1` here?
**A.** inconclusive: 8.91 µM [quencher, side channel, partial curve]

**Q.** How did the Potency turn out when `Cc1ccnc(NS(=O)(=O)c2ccc(NS(=O)(=O)c3ccc([N+](=O)[O-])cc3)cc2)n1` was run?
**A.** inconclusive: 7.08 µM [quencher, side channel, partial curve]

**Q.** With `O=C(CSc1nc(Nc2ccccc2)nc(N2CCOCC2)n1)Nc1cccc([N+](=O)[O-])c1` as the molecule, how does the Potency read?
**A.** inconclusive: 25.1 µM [quencher, side channel, single point]

**Q.** With `CC(=O)N/C(=C/c1ccc2c(c1)OCO2)C(=O)NCCCO` as the molecule, how does the Potency read?
**A.** inconclusive: 10 µM [quencher, side channel, partial curve]

**Q.** For `Cc1ccc(OCC(=O)NCc2cccs2)c([N+](=O)[O-])n1`, which Potency is on record?
**A.** inconclusive: 10 µM [quencher, side channel, partial curve]

**Q.** How did the Potency turn out when `CC(=O)Nc1ccc(S(=O)(=O)N2C3CCCC2CC(NC(=O)C2CCCCC2)C3)cc1` (configuration not stated) was run?
**A.** inactive

**Q.** With `COc1ccc(NC(=O)c2cccnc2SC)cc1OC` as the molecule, how does the Potency read?
**A.** inconclusive: 6.31 µM [fluorescent, side channel, single point]

**Q.** Which Potency does the source give for `CN(C)Cc1nc2c(c(=O)[nH]1)C1(CCCCC1)Cc1ccccc1-2` here?
**A.** inactive

**Q.** With `COc1cc(OC)c(NC(=O)N2CCOCC2)cc1Cl` as the molecule, how does the Potency read?
**A.** inactive

**Q.** For `O=C(NCC1CCCO1)c1ccc([N+](=O)[O-])o1` (configuration not stated), which Potency is on record?
**A.** inconclusive: 14.1 µM [quencher, side channel, partial curve]

**Q.** With `Cc1ccc(NCC(=O)N/N=C/c2ccncc2)cc1` as the molecule, how does the Potency read?
**A.** inconclusive: 14.1 µM [quencher, side channel, partial curve]

**Q.** For `Cc1cccc(C(=O)Nc2ccccc2C(=O)OCC(=O)Nc2ccc(C#N)cc2)c1`, which Potency is on record?
**A.** inactive

**Q.** With `N=c1nc(SCCC(=O)O)ss1` as the molecule, how does the Potency read?
**A.** inconclusive: 3.16 µM [quencher, side channel, partial curve]

**Q.** Which Potency does the source give for `COc1ccc(/C(N)=N/OC(=O)C2CCCCC2)cc1` here?
**A.** inactive

**Q.** `CC(=O)NC1(C(F)(F)F)C(=O)N(Cc2ccccc2)C2=C1C(=O)CC(C)(C)C2` (configuration not stated) was tested. Which Potency did it give?
**A.** inactive

**Q.** For `CCC(C)C(=O)Nc1ccc([N+](=O)[O-])cc1OC` (configuration not stated), which Potency is on record?
**A.** inconclusive: 10 µM [quencher, partial curve]

**Q.** For `COc1ccc(-c2cn3ccccc3n2)cc1[N+](=O)[O-]`, which Potency is on record?
**A.** inconclusive: 11.2 µM [quencher, side channel, partial curve]

**Q.** For `COc1ccc(N(CCCN2C(=O)c3cccc4cccc(c34)C2=O)C(=O)c2ccncc2)cc1`, which Potency is on record?
**A.** inconclusive: 14.1 µM [quencher, partial curve]

**Q.** How did the Potency turn out when `C/C(=N\Nc1nc(N)cc(Cl)n1)c1cccc([N+](=O)[O-])c1` was run?
**A.** inconclusive: 6.31 µM [quencher, side channel, partial curve]

**Q.** `O=C(N/N=C/c1ccccn1)c1cccc([N+](=O)[O-])c1` was tested. Which Potency did it give?
**A.** inconclusive: 15.8 µM [quencher, side channel, partial curve]

**Q.** Which Potency does the source give for `Cc1ccc2nc(-c3ccccn3)oc2c1` here?
**A.** inactive

**Q.** Which Potency does the source give for `COc1ccc(CCN(C)C(=O)c2cc(-c3ccccc3)nc3ccc(C)cc23)cc1OC` here?
**A.** inconclusive: 15.8 µM [quencher, side channel, partial curve]

**Q.** Which Potency does the source give for `O=C(CC1SCCNC1=O)Nc1ccc(F)c(Cl)c1` (configuration not stated) here?
**A.** inconclusive: 200 µM [inhibitor, partial curve]

**Q.** Which Potency does the source give for `Cc1ccc(S(=O)(=O)N2CCN(Cc3ccccc3)CC2)cc1` here?
**A.** inactive

**Q.** Which Potency does the source give for `COc1ccc(N2CCN(C(=O)c3ccc(NS(=O)(=O)c4ccccc4)cc3)CC2)cc1` here?
**A.** inconclusive: 79.4 µM [inhibitor, single point]

**Q.** `CCCN1C(=O)c2ccc(C(=O)Nc3ccccc3C(=O)O)cc2C1=O` was tested. Which Potency did it give?
**A.** inconclusive: 25.1 µM [quencher, side channel, partial curve]
